Test results taken from the supplement of paper PMC3334620.
Whole data set: some 33,000 sequences, median “E-score (-0.5 to 0.5)” near -0.036, cut for the highest 2% near 0.37. The list shows a part of the results.

Biological target: T1, Yer064c (UniProt P40041)
T1 sequence: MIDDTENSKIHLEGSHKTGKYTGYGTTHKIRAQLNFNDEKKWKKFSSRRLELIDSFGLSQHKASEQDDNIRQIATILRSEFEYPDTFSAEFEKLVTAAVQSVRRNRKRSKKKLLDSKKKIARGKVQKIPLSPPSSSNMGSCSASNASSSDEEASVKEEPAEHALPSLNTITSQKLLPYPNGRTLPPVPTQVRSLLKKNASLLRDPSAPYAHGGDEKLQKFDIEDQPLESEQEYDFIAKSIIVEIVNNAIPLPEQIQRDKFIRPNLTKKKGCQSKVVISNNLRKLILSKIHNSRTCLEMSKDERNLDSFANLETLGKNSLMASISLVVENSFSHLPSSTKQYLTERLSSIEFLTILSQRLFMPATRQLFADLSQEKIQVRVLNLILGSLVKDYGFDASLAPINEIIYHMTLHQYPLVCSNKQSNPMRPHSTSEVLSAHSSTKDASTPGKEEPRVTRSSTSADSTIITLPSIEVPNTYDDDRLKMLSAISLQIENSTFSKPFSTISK
Test: PBM E-score (8-mer binding enrichment) (E-score (-0.5 to 0.5)); higher = stronger / more preferred TF binding; most listed sequences are background and not binding sites
Conditions: protein concentration: 200 nM; construct: GST-full length
Summary of the method: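 Universal all-10-mer Agilent arrays, fresh or stripped once, were converted to double-stranded form by primer extension. GST-tagged yeast transcription factors from PURExpress in vitro transcription/translation, full-length or DNA-binding domain only, were applied at about 100-200 nM and detected with fluorescent anti-GST. After masliner normalisation, the Universal PBM Analysis Suite scored each ungapped eight-base word together with its reverse complement by E-score.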

Sequence	PBM E-score
ATAGTTTC	0.201
CAATGTGG	-0.135
ACTAGATA	0.177
CAGATGAC	0.215
AACGGCAT	-0.0999
ACAACAGT	0.131
ACTCAAAC	0.344
GGGGGGTA	-0.148
AACAATTG	0.0879
GACTTACC	0.294
CTCAGCGC	0.00265
GGCCCCCA	-0.402
CTACTAGC	0.089
ACGACCCC	-0.275
GATGCTGA	-0.0582
ACGGAAAG	-0.0796
GACGCTAC	0.0103
ACTAACCT	0.197
TGTCACAA	0.156
CTTACCAA	-0.0253
CTATACCC	-0.139
GCCTGTCC	-0.279

Sequence	PBM E-score
CCAACACG	-0.00911
AATGAATA	0.132
GTACCGCA	-0.0756
CGGACGAG	-0.0356
ATCTCCGA	0.0166
TCTTCACA	0.127
CGCACAAC	-0.214
ACTGAGTC	0.477
GTGATATA	-0.166
CACCTAGC	-0.105
ATGAAGCC	-0.12
AGGAATTG	-0.103
GGCCGCGA	-0.206
CAGCTGAA	0.0482
CCGAGTAG	0.0202
ATCCCGGG	-0.189
AGTACCCA	0.157
TCCTTAAA	0.171
CTGCTCCC	-0.256
AAAAGCTA	-0.128
ATAAAGTA	0.139
CACCCTCA	-0.00422

Sequence	PBM E-score
ACGCCCGG	0.112
GGGTTTTA	-0.26
CTTTACTC	0.107
CGGGGCTA	-0.167
AAGTCTTG	0.205
GGGCGCGA	-0.0578
CTCCAAGC	-0.156
AGAGGAAG	-0.12
CATACATG	0.0976
ACTCGCAA	0.218
ATGTTACG	-0.102
CAGCCTCC	-0.283
CCCGCGGC	-0.182
AAATCACG	0.264
CCCTCAGC	-0.191
AGCCCCGG	-0.302
GGCCTCAA	-0.19
GATCAACA	0.168
CGTGAGAC	0.137
CACGAGCA	-0.0331
AAACCTGG	0.0113
ATCCGCGC	-0.0971

Sequence	PBM E-score
TCCGCAGA	-0.102
AATCTCGG	0.00127
TATTTAAA	0.119
GTAAGACA	-0.0654
AGTTCCAA	0.0291
AATTGCAC	-0.147
CGTACTGC	-0.092
GGGACCGA	-0.0437
GGTATTAC	-0.0144
AAACAAGG	-0.0917
AATACCCA	0.128
AAAGCGAA	-0.0893
ATCCATTC	0.0758
CAGGGTTC	-0.0967
CATTGGGG	-0.145
AGTCTAGG	-0.0693
AGGGGCAA	-0.279
AGTGTTGA	0.0634
AAGTGATG	0.0804
GCACCGAA	0.0443
